Out of some 230,000 compounds screened, fewer than 10 were called active. The inconclusive results got no clear call from the source; some entries with a clear call stand among them for comparison. Calls come from the whole dose curve; as a rule, active = well fitted curve in the direction sought with a large enough effect; inconclusive = small, poorly fitted or top-dose-only effect, or effect the other way, or another doubt; inactive = no such curve, though single readings can be large or run the other way. No potency is given beside an inconclusive call; the fits are too rough.
The molecules below were run against Runt-related transcription factor 1 (Homo sapiens) + Core-binding factor subunit beta (Homo sapiens) (UniProt Q01196+Q13951) (assay: qHTS Assay for Compounds Blocking the Interaction Between CBF-beta and RUNX1 for the Treatment of Acute Myeloid Leukemia). Settings: AlphaScreen CBFb-His/RUNX1-biotin binding, biochemical; series mostly up to 59.8 µM.
Method in brief: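 CBF-beta (His) and RUNX1 (biotin), 30 nM each; 20 min preassociation; + compound, 15 min; + beads 50 ng each (Ni, streptavidin), 90 min; RT; AlphaScreen read.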

Sequence of UniProt Q01196 (Q01196 whole entry, looked up): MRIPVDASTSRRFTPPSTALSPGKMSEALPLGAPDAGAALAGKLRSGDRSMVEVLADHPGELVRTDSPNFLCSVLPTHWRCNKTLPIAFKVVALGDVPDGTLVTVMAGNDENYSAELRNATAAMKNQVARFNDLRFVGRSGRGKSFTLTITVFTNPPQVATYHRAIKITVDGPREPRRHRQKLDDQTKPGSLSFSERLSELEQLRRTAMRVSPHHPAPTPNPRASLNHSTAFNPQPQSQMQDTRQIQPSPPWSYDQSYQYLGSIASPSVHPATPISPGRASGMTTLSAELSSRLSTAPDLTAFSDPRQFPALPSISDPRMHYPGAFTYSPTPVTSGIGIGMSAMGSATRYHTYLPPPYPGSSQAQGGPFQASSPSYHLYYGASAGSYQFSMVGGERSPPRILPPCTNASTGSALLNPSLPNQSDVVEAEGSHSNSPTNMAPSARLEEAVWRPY
Sequence of UniProt Q01196 (Q13951 whole entry, looked up): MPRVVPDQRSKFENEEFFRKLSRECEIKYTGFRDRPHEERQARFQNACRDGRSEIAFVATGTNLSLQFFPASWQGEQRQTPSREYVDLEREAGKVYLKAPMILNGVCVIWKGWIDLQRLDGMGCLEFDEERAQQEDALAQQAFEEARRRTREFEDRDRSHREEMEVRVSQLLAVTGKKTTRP

**Q.** `C[C@]1(C(=O)NCc2cc(F)cc(C(F)(F)F)c2)C=C[C@@H](Cc2ccccc2)N1C(=O)c1ccccc1` was tested. Which Potency did it give?
**A.** inconclusive [activator, partial curve]

**Q.** With `COc1cccc(CNC(=O)N[C@@H](C)C(=O)O)c1` as the molecule, how does the Potency read?
**A.** inactive

**Q.** How did the Potency turn out when `Cc1cc(C)c2nc(NNC(=O)c3cc(=O)c4ccccc4o3)sc2c1` was run?
**A.** inconclusive [inhibitor, single point]

**Q.** With `O=C(Cn1cc2c(n1)CCCC2)NCc1ccccn1` as the molecule, how does the Potency read?
**A.** inactive

**Q.** With `Cc1ccc(CN2CCSc3ccc(C(=O)NCc4cccnc4)cc32)cc1` as the molecule, how does the Potency read?
**A.** inconclusive [inhibitor, single point]

**Q.** How did the Potency turn out when `Cc1ccc(C(=O)CSc2nc3ccccc3o2)cc1` was run?
**A.** inconclusive [activator, single point]

**Q.** With `COc1ccc(OC)c(C2C3=C(N=C4SCC(=O)N42)c2ccccc2CC3)c1` (stereo unspecified) as the molecule, how does the Potency read?
**A.** inconclusive [inhibitor, single point]

**Q.** With `O=C(Nc1ccc(N2CCN(C(=O)c3ccccc3)CC2)cc1)c1ccc([N+](=O)[O-])o1` as the molecule, how does the Potency read?
**A.** inconclusive [inhibitor, single point]

**Q.** For `Cc1ccc(N=C=O)cc1N=C=O`, which Potency is on record?
**A.** inconclusive [inhibitor, partial curve]

**Q.** How did the Potency turn out when `Cc1cccc(-n2c(-c3ccco3)n[nH]c2=S)c1` was run?
**A.** inactive

**Q.** `Cc1cccc(NC(=O)CSc2nnc(-c3ccco3)c(-c3ccco3)n2)c1` was tested. Which Potency did it give?
**A.** inconclusive [inhibitor, single point]

**Q.** With `O=C(Nc1ccc(F)cc1F)c1cccnc1Oc1cccc(C(F)(F)F)c1` as the molecule, how does the Potency read?
**A.** inactive

**Q.** How did the Potency turn out when `Fc1ccc(COc2ccc(-c3nnco3)cc2)cc1` was run?
**A.** inconclusive [activator, partial curve]

**Q.** `Cc1ccc(NC(=O)c2noc3c2CCC3)cc1C` was tested. Which Potency did it give?
**A.** inconclusive [inhibitor, single point]

**Q.** `Clc1ccc(Cn2nc(-c3ccccc3)nc2-c2ccccc2)cc1` was tested. Which Potency did it give?
**A.** inconclusive [activator, single point]

**Q.** `CC(C)OC(=O)c1nnn(-c2nonc2N)c1CSc1ccccn1` was tested. Which Potency did it give?
**A.** inactive

**Q.** Which Potency does the source give for `CC1(C)OC(=O)C(=CNNc2c(Cl)cc(Cl)cc2Cl)C(=O)O1` here?
**A.** inactive

**Q.** How did the Potency turn out when `COCCNC(=O)c1ccc2c(=O)n(CCOC)c(=O)[nH]c2c1` was run?
**A.** inactive

**Q.** Which Potency does the source give for `Cc1ccc(S(=O)(=O)c2cc3ccccc3oc2=Nc2ccc3c(c2)OCCO3)cc1` here?
**A.** inconclusive [inhibitor, partial curve]

**Q.** `O=C(Nc1nccs1)c1cccc(N2C(=O)c3cccc4c([N+](=O)[O-])ccc(c34)C2=O)c1` was tested. Which Potency did it give?
**A.** inactive

**Q.** `O=C1OCCN1C(=O)[C@H]1[C@H](c2ccc(Cl)cc2)C(c2cccc(Cl)c2)=NN1c1ccc(Br)cc1` was tested. Which Potency did it give?
**A.** inconclusive [activator, partial curve]

**Q.** For `CCC(=O)N1CCN(c2ccccc2NC(=O)COc2cccc(C)c2)CC1`, which Potency is on record?
**A.** inconclusive [inhibitor, single point]

**Q.** Which Potency does the source give for `O=C(CSc1ccccc1C(=O)NCc1ccccc1)NC1CCCCCCC1` here?
**A.** inconclusive [activator, single point]

**Q.** How did the Potency turn out when `N=c1n(CCN2CCOCC2)c2ccccc2n1CC(=O)c1ccc(Cl)c(Cl)c1` was run?
**A.** inactive

**Q.** Which Potency does the source give for `Cc1ccc(/C=c2\sc3nc(-c4ccccc4Br)nn3c2=O)o1` here?
**A.** inconclusive [inhibitor, partial curve]

**Q.** Which Potency does the source give for `O=[N+]([O-])c1ccccc1/C=C/C=N/N1CCCCC1` here?
**A.** inconclusive [inhibitor, partial curve]

**Q.** How did the Potency turn out when `CS(=O)(=O)N(Cc1ccccc1Cl)c1ccc(C(=O)NCc2ccccn2)cc1` was run?
**A.** inconclusive [inhibitor, partial curve]

**Q.** Which Potency does the source give for `Cc1ccc(S(=O)(=O)Nc2ccc3nc(C)sc3c2)cc1` here?
**A.** inactive

**Q.** For `CC(=O)c1ccc(NC(=O)c2noc3c2CCC3)cc1`, which Potency is on record?
**A.** inconclusive [inhibitor, partial curve]

**Q.** `COc1ccccc1-n1c(N)c(C(=O)NCC2CCCO2)c2nc3ccccc3nc21` (stereo unspecified) was tested. Which Potency did it give?
**A.** inconclusive [activator, single point]

**Q.** `O=C(NCCCNC1CCCCC1)c1ccc(/C=N/O)nc1` was tested. Which Potency did it give?
**A.** inactive

**Q.** `C#CCN1C(=O)S/C(=C/C=C/c2ccc(N(C)C)cc2)C1=O` was tested. Which Potency did it give?
**A.** inconclusive [inhibitor, partial curve]

**Q.** With `CC[C@@H]1C(c2cccc(C)c2)=NN(c2ccc(Br)cc2)[C@H]1C(=O)N1CCOC1=O` as the molecule, how does the Potency read?
**A.** inconclusive [activator, partial curve]

**Q.** `N#CCCN1CCN(C(=S)c2ccc(-c3cccc(Cl)c3)o2)CC1` was tested. Which Potency did it give?
**A.** inconclusive [inhibitor, single point]

**Q.** `Cc1cccc(-n2c(=S)[nH]c3nc4c(cc3c2=O)COC(C)(C)C4)c1` was tested. Which Potency did it give?
**A.** inconclusive [inhibitor, single point]

**Q.** With `O=C(O)CSc1cc(C(=O)c2ccccc2O)cn2c(=O)c3c(-c4ccccc4)csc3nc12` as the molecule, how does the Potency read?
**A.** inconclusive [inhibitor, single point]

**Q.** With `CCC(=O)N1CCN(c2ccc(NC(=O)c3cc4ccccc4o3)cc2)CC1` as the molecule, how does the Potency read?
**A.** inconclusive [inhibitor, single point]

**Q.** How did the Potency turn out when `Cc1cc(/C=C2\C(=N)N3N=C(c4ccco4)SC3=NC2=O)c(C)n1Cc1ccccc1` was run?
**A.** inconclusive [inhibitor, partial curve]

**Q.** Which Potency does the source give for `Cc1c(C(=O)NCc2cccs2)oc2ccccc12` here?
**A.** inconclusive [inhibitor, single point]

**Q.** With `O=C(Nc1cccc(F)c1)N1CC=C(c2ccc(Cl)cc2)CC1` as the molecule, how does the Potency read?
**A.** inactive

**Q.** How did the Potency turn out when `Cn1c(-c2ccc3c(c2)OCO3)cnc1NCc1ccccc1` was run?
**A.** inactive

**Q.** For `Cc1onc(-c2ccccc2)c1C(=O)NC(=S)Nc1sc2c(c1C#N)CCCC2`, which Potency is on record?
**A.** inconclusive [activator, partial curve, poor fit]

**Q.** How did the Potency turn out when `S=c1[nH]nc(COc2ccccc2)n1/N=C/C=C/c1ccco1` was run?
**A.** inconclusive [inhibitor, single point]

**Q.** `Cc1ccc(S(=O)(=O)NCC(=O)NCC(=O)OCC(=O)N2CC(=O)Nc3ccccc32)cc1C` was tested. Which Potency did it give?
**A.** inactive

**Q.** `CCN(CC)S(=O)(=O)c1cccc(C(=O)Nc2ccc3c(c2)OCO3)c1` was tested. Which Potency did it give?
**A.** inactive

**Q.** With `CCC(CC)NC(=O)Nc1ccc(F)c(Cl)c1` as the molecule, how does the Potency read?
**A.** inactive

**Q.** Which Potency does the source give for `c1ccc(Cn2c(NCc3ccccn3)nc3ccccc32)cc1` here?
**A.** inactive

**Q.** How did the Potency turn out when `Cc1cccc(C)c1NC(=O)CSC(=S)N1CCCC1` was run?
**A.** inconclusive [activator, single point]

**Q.** How did the Potency turn out when `Cc1ccccc1Nc1nnc(SCC(=O)NC(=O)NCc2ccco2)s1` was run?
**A.** inconclusive [inhibitor, single point]

**Q.** Which Potency does the source give for `N#CCN1CCC2(O)CCCCC2C1c1ccc2c(c1)OCO2` (stereo unspecified) here?
**A.** inactive

**Q.** For `N#C/C(=C(O)\C=C\c1ccccc1)c1nc2ccccc2[nH]1`, which Potency is on record?
**A.** inactive

**Q.** `CCN=c1scc(C)n1/N=C/c1ccc(O)c(O)c1O` was tested. Which Potency did it give?
**A.** inconclusive [inhibitor, partial curve]

**Q.** Which Potency does the source give for `O=C(Nc1cc(C(F)(F)F)ccc1O)Nc1cc(C(F)(F)F)ccc1O` here?
**A.** inconclusive [activator, single point]

**Q.** Which Potency does the source give for `COc1cc(/C=N/NC(=O)c2cccnc2)ccc1OCC(=O)Nc1ccccc1Cl` here?
**A.** inconclusive [activator, single point]

**Q.** `COc1ccc(Nc2nc(N)nc(CN3CCC(Cc4ccccc4)CC3)n2)cc1` was tested. Which Potency did it give?
**A.** inconclusive [inhibitor, single point]

**Q.** How did the Potency turn out when `COc1ccccc1N1CCN(C(=O)CCCN2C(=O)c3cccc4cccc(c34)C2=O)CC1` was run?
**A.** inconclusive [inhibitor, partial curve]

**Q.** Which Potency does the source give for `O=C(/C=C/c1ccco1)Nc1ccc2c(c1)OCO2` here?
**A.** inactive

**Q.** How did the Potency turn out when `CNC(=O)C(=O)Nc1c(C)cc(C)cc1C` was run?
**A.** inactive

**Q.** `O=C(NCCCN1CCCCCC1)C1CC(=O)N(CCc2ccccc2)C1` (stereo unspecified) was tested. Which Potency did it give?
**A.** inconclusive [activator, partial curve]

**Q.** `COc1cc(/C=C2/SC(=Nc3ccc(O)cc3)NC2=O)cc(OC)c1O` was tested. Which Potency did it give?
**A.** inactive

**Q.** With `COc1ccc(Oc2ccc(C(F)(F)F)cc2NC(=O)c2ccc(OC)cc2)cc1` as the molecule, how does the Potency read?
**A.** inconclusive [activator, partial curve]

**Q.** With `O=C(N=Nc1c(O)[nH]c2ccc(Br)cc12)c1ccccc1-n1cccc1` as the molecule, how does the Potency read?
**A.** inconclusive [inhibitor, single point]

**Q.** `O=[N+]([O-])c1ccccc1/C=C/C=N/Nc1ccc(S(=O)(=O)Nc2ccc(Cl)cc2)cc1[N+](=O)[O-]` was tested. Which Potency did it give?
**A.** inconclusive [inhibitor, single point]

**Q.** Which Potency does the source give for `Cc1nc(SCC(=O)Nc2cc(C(N)=O)cc(C(N)=O)c2)c2c(C)c(C)sc2n1` here?
**A.** inconclusive [activator, partial curve]

**Q.** Which Potency does the source give for `O=C(CCCSc1nnc(Nc2ccccc2F)s1)N1CCOCC1` here?
**A.** inactive

**Q.** Which Potency does the source give for `COc1ccccc1C1CCN(c2cc(O)ccc2[N+](=O)[O-])CC1` here?
**A.** inconclusive [inhibitor, single point]

**Q.** Which Potency does the source give for `O=C(NCc1ccccc1)C(c1ccccc1)N(Cc1ccc2c(c1)OCO2)C(=O)Cc1cccs1` (stereo unspecified) here?
**A.** inactive

**Q.** Which Potency does the source give for `Cc1ccc2sc(NNC(=O)c3cc(=O)c4ccccc4o3)nc2c1C` here?
**A.** inconclusive [inhibitor, partial curve]

**Q.** `CN(C1CCCCC1)S(=O)(=O)c1ccc(NC(=O)Cn2nc(-c3ccc(F)cc3)ccc2=O)cc1` was tested. Which Potency did it give?
**A.** inactive

**Q.** With `COCCn1c(-c2ccc(OC)cc2)cnc1SCC(=O)Nc1ccc(OC)cc1OC` as the molecule, how does the Potency read?
**A.** inconclusive [inhibitor, single point]

**Q.** For `O=C(CN1C(=O)/C(=C\c2ccccc2Cl)Oc2ccccc21)NCc1cccnc1`, which Potency is on record?
**A.** inconclusive [activator, single point]

Reference: PubChem BioAssay AID1477 (National Center for Advancing Translational Sciences (NCATS), 2009)
